Assay [1] addresses T1, GST-Nanos1 NIM (human) (UniProt Q8WY41).
T1 sequence: FSSWNDYLGLATLITKA
Nature of the assay: pull-down; GST pull-down in vitro with recombinant proteins expressed in E. coli; GST-NIM as bait; both purified.

Protein sequences, listed by entry. Tags and fused reporters are not part of them. Lines headed by an entry give the natural chain unless they say otherwise; changes in a name come on top. Chains listed by the source or under a name are the forms on record and can include a tag or linker.
UniProt P60321: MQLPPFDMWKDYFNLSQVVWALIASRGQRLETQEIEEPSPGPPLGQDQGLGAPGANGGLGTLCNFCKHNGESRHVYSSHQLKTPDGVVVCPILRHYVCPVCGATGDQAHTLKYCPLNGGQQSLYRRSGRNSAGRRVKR
V5-SBP-tagged Nanos2 Δ6–22 (P60321, form named): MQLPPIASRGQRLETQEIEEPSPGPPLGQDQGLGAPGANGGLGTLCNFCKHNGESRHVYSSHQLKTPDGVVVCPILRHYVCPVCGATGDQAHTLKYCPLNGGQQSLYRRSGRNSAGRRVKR
UniProt P60323: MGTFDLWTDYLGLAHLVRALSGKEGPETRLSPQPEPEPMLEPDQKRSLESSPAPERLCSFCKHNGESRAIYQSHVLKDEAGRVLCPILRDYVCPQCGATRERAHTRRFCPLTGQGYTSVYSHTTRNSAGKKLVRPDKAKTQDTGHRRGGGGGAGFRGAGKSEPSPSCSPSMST
V5-SBP-tagged Nanos3 Δ4–20 (P60323, form named): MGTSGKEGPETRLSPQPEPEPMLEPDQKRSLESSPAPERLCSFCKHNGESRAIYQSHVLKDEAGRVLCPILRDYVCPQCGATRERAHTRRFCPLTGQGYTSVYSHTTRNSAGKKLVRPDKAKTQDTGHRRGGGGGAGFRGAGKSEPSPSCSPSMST
UniProt A5YKK6: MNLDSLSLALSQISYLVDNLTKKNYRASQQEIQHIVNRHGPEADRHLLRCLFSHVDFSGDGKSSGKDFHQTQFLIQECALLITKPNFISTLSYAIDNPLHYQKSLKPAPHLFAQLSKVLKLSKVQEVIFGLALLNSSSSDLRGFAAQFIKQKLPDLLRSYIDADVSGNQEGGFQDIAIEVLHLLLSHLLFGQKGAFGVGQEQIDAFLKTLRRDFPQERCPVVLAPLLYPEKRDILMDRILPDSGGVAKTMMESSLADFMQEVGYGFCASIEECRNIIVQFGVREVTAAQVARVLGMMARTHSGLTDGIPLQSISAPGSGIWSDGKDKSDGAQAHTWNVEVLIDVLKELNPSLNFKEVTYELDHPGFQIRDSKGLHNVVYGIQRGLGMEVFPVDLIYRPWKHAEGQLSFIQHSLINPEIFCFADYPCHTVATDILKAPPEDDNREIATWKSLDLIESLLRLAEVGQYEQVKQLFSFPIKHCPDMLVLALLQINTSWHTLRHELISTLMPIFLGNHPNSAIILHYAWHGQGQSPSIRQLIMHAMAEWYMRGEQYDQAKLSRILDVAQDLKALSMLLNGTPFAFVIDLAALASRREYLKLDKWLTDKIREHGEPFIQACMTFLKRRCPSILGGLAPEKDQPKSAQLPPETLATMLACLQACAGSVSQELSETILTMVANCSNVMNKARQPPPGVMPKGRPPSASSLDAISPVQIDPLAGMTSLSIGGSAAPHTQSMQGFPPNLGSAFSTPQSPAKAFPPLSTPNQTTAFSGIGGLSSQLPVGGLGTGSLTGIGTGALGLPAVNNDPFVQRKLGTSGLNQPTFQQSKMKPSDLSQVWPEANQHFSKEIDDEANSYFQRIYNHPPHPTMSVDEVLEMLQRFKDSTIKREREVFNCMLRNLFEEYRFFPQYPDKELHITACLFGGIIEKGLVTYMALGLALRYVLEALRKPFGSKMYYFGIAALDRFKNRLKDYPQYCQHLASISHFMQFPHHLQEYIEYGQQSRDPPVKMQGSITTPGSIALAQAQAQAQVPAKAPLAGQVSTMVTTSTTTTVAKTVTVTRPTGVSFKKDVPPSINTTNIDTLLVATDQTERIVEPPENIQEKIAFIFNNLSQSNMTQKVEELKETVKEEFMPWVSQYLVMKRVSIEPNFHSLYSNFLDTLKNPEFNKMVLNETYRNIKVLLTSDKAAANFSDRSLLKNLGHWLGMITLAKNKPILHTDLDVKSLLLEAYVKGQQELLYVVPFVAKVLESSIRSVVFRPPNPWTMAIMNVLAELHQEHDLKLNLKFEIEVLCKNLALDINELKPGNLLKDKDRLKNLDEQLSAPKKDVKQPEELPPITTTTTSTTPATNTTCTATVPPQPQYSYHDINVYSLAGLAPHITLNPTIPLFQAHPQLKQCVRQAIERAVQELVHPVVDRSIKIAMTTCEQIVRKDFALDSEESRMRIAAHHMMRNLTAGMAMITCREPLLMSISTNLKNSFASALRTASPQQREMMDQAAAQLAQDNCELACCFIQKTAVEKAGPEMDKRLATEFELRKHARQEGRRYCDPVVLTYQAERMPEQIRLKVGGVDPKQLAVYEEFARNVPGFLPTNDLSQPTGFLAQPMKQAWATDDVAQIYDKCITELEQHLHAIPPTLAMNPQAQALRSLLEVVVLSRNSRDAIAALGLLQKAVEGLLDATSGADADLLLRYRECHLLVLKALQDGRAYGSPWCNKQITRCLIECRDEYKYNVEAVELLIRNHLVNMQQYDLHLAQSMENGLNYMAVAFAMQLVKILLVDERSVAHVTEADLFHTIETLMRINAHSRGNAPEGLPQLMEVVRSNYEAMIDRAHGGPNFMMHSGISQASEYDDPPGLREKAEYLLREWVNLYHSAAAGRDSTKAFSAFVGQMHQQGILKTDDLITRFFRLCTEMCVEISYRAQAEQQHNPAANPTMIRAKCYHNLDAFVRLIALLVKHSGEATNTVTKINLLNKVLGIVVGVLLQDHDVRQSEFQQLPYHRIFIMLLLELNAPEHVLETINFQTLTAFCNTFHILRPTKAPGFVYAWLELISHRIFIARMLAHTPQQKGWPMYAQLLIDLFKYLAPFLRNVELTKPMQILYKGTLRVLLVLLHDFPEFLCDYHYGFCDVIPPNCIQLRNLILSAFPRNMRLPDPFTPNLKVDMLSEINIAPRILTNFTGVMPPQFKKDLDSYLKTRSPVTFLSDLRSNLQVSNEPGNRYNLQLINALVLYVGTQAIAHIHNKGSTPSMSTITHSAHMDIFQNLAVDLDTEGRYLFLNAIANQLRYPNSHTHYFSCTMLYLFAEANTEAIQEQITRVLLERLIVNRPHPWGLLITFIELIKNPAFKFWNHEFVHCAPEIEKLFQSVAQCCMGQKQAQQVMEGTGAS
UniProt Q9NZN8: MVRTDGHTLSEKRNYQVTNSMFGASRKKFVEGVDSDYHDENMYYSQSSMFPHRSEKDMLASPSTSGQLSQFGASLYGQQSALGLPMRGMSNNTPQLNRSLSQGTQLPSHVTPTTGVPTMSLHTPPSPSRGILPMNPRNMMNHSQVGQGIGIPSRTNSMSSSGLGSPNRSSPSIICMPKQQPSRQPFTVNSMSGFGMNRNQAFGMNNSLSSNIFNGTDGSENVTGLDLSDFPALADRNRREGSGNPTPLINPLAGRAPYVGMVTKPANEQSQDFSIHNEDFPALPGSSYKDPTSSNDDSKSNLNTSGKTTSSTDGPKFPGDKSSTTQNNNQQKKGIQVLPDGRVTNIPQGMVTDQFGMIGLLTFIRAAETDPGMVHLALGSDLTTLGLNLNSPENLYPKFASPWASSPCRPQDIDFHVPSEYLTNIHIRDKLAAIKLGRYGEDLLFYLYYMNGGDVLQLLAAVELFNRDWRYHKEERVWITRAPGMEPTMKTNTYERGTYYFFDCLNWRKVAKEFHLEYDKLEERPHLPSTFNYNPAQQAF
UniProt O75175: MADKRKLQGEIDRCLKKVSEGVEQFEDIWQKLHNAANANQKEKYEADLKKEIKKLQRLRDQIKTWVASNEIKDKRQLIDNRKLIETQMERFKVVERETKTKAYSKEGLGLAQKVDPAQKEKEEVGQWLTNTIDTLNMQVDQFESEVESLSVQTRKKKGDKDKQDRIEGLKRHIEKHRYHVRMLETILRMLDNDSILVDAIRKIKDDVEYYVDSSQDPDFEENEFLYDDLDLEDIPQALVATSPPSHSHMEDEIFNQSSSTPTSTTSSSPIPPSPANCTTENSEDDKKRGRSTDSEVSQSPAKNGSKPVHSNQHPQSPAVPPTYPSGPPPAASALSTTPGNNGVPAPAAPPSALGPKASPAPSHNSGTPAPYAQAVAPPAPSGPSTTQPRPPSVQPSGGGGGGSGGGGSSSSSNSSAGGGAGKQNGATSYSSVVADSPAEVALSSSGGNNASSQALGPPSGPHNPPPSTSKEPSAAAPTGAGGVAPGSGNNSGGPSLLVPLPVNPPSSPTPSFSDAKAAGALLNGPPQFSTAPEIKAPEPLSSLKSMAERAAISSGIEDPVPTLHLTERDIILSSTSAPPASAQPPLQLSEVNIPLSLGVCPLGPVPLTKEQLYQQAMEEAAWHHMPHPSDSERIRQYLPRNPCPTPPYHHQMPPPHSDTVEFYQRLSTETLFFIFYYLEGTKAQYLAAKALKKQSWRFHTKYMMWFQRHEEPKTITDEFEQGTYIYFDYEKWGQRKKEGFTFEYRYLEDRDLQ

Assay [2] concerns the target T2, GST-Nanos2 NIM (human) (UniProt P60321).
T2 sequence: FDMWKDYFNLSQVVWAL
Described as above.

The target in assay [3] is T3, GST-Nanos3 NIM (human) (UniProt P60323).
T3 sequence: FDLWTDYLGLAHLVRAL
The assay is described as above.

Assay [4] deals with T4, V5-SBP-MBP-Nanos1 conserved motif (NIM) (human) (UniProt Q8WY41).
T4 sequence: FSSWNDYLGLATLITKA
The assay is described as follows: pull-down; SBP (streptavidin-binding peptide) pull-down from lysates of HEK293T cells expressing V5-SBP-tagged Nanos proteins; endogenous CNOT1 and CNOT3 detected by Western blotting.

Assay [5] has as its target T5, V5-SBP-MBP-Nanos2 conserved motif (NIM) (human) (UniProt P60321).
T5 sequence: FDMWKDYFNLSQVVWAL
The assay is described as above.

Assay [6] concerns the target T6, V5-SBP-MBP-Nanos3 conserved motif (NIM) (human) (UniProt P60323).
T6 sequence: FDLWTDYLGLAHLVRAL
Described as above.

Assay [7] has as its target T7, V5-SBP-tagged Nanos1 (full length) (human) (UniProt Q8WY41).
T7 sequence: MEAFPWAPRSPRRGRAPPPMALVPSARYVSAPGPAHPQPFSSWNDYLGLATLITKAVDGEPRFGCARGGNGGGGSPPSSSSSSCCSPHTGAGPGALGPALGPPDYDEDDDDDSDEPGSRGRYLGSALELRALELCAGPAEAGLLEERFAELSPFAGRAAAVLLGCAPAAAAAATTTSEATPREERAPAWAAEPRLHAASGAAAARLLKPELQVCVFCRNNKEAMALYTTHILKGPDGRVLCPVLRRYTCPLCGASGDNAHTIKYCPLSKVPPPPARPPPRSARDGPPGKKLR
The description is as above.

Assay [8] deals with T8, V5-SBP-tagged Nanos1 F40A (human) (UniProt Q8WY41).
T8 sequence: T7 sequence with F40A
The description is as above.

Assay [9] addresses T9, V5-SBP-tagged Nanos1 W43E (human) (UniProt Q8WY41).
T9 sequence: T7 sequence with W43E
Described as above.

Assay [10] has as its target T10, V5-SBP-tagged Nanos1 Y46E (human) (UniProt Q8WY41).
T10 sequence: T7 sequence with Y46E
The assay is described as above.

For assay [11], the target named is T11, V5-SBP-tagged Nanos1 fragment 1–58 (human) (UniProt Q8WY41).
T11 sequence: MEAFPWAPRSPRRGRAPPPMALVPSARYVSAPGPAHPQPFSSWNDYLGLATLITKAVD
Described as above.

Assay [12] has as its target T12, V5-SBP-tagged Nanos1 Δ40–56 (human) (UniProt Q8WY41).
T12 sequence: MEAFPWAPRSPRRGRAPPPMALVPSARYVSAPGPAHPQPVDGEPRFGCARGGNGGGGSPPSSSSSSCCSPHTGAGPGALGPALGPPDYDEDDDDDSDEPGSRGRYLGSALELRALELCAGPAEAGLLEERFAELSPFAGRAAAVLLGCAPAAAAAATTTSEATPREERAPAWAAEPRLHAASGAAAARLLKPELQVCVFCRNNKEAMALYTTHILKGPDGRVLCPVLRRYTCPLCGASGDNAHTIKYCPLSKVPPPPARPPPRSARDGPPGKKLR
The assay is described as above.

Assay [13] deals with V5-SBP-tagged Nanos2 (full length) (human) (UniProt P60321). Described as above.
Assay [14] addresses V5-SBP-tagged Nanos2 F6A (human) (UniProt P60321). The description is as above.
Assay [15] deals with V5-SBP-tagged Nanos2 W9E (human) (UniProt P60321). Described as above.
Assay [16] has as its target V5-SBP-tagged Nanos2 Y12E (human) (UniProt P60321). Described as above.
The target in assay [17] is V5-SBP-tagged Nanos2 Δ6–22 (human) (UniProt P60321). The description is as above.
The target of assay [18] is V5-SBP-tagged Nanos3 (full length) (human) (UniProt P60323). Described as above.
The target of assay [19] is V5-SBP-tagged Nanos3 F4A (human) (UniProt P60323). Described as above.
For assay [20], the target named is V5-SBP-tagged Nanos3 W7E (human) (UniProt P60323). Described as above.
Assay [21] has as its target V5-SBP-tagged Nanos3 Y10E (human) (UniProt P60323). The assay is described as above.
Assay [22] has as its target V5-SBP-tagged Nanos3 Δ4–20 (human) (UniProt P60323). The description is as above.
For assay [23], the target named is T1, GST-Nanos1 NIM (human). The assay is described as follows: pull-down; GST pull-down with competitor: MBP-Nanos3 NIM (or its Y10E mutant) in 0.5-fold, onefold and fivefold molar excess relative to the GST-NIMs; NOT module as prey; both purified.
Assay [24] deals with T2, GST-Nanos2 NIM (human). The assay is described as above.
Assay [25] deals with T3, GST-Nanos3 NIM (human). Described as above.
For assay [26], the target named is recombinant NOT module (CNOT1 SHD with the CNOT2 and CNOT3 C-terminal domains) (human) (UniProt A5YKK6+Q9NZN8+O75175). The assay is described as above.

In publication PMC4003280, “Structural basis for the Nanos-mediated recruitment of the CCR4–NOT complex and translational repression” (Genes & Development, 2014) one finds binding data, which are given here for seven molecules.

Changes are numbered by the printed parent chain. Results are given in words; binding and its absence hold for the method and conditions named. For some assays here: Binding seen in cells or lysates may run through a third protein. Some entries that bind do so weakly or less than the wild type. For some assays here: Sequences can lack the tags named with a protein.

On to “CNOT2–CNOT3 heterodimer (C-terminal domains) (from UniProt Q9NZN8 344-540; O75175 607-753) (complex)”, for which the binding entry with GST-Nanos1 NIM (human) [1], in the assay with GST-Nanos2 NIM (human) [2] and in the assay with GST-Nanos3 NIM (human) [3] was “no binding” each time.
In the case of “endogenous CNOT1 (from UniProt A5YKK6 1-2376)”, the binding entry in assay [4] is on record as “no binding”; in assay [5], “binds”; in [6], “binds”; in assay [7] it was “binds”; in assay [8], “no binding”; in assay [9], “no binding”. For the same molecule, the binding entry in assay [10] was “no binding”; in [11], “binds”; in assay [12], “no binding”; in assay [13], “binds”; in [14], “no binding”; in assay [15], “no binding”. Besides, the binding result was “binds” in assay [16]; “no binding” in [17]; “binds” in [18]; “no binding” in assay [19]; “no binding” in [20]; “no binding” in assay [21]. Further, the binding entry in assay [22] was “no binding”.
Take “endogenous CNOT3 (from UniProt O75175 1-753)”: the binding entry in assay [4], in [8], in assay [9], in assay [10], in assay [12] and in assay [14] was “no binding” each time. Also, the binding entry in [15], in assay [17], in assay [19], in assay [20], in assay [21] and in [22] was “no binding” throughout.
Regarding “recombinant NOT module (CNOT1 SHD with the CNOT2 and CNOT3 C-terminal domains) (from UniProt A5YKK6 1833-2361; Q9NZN8 344-540; O75175 607-753) (complex)”, the binding result with GST-Nanos1 NIM (human) [1], with GST-Nanos2 NIM (human) [2], with GST-Nanos3 NIM (human) [3], in the assay with GST-Nanos1 NIM (human) [23], with GST-Nanos2 NIM (human) [24] and with GST-Nanos3 NIM (human) [25] was “binds” each time.
In the case of “recombinant NOT module containing CNOT1 SHD F2353D (from UniProt A5YKK6 1833-2361; Q9NZN8 344-540; O75175 607-753) (complex)”, the binding result with GST-Nanos1 NIM (human) [1] is reported as “no binding”; with GST-Nanos2 NIM (human) [2], “binds weakly”; with GST-Nanos3 NIM (human) [3], “binds weakly”.
In the case of “recombinant NOT module containing CNOT1 SHD I2330E (from UniProt A5YKK6 1833-2361; Q9NZN8 344-540; O75175 607-753) (complex)”, the binding result is “no binding” with GST-Nanos1 NIM (human) [1], “binds weakly” with GST-Nanos2 NIM (human) [2] and “binds weakly” with GST-Nanos3 NIM (human) [3].

B1: GST-Nanos3 NIM (domain or fragment, human, UniProt P60323 4-20, looked up)
chain: FDLWTDYLGLAHLVRAL
notes: Nanos3, human, NIM, residues 4-20; also called conserved motif of Nanos3 fused to glutathione S-transferase; GST-tagged Nanos3 NIM; source: E. coli BL21 (DE3) Star, purified (described in the Supplemental Material)
In the case of B1, the binding entry in assay [26] is reported as “binds”.
